# From PubChem BioAssay AID743262 (National Center for Advancing Translational Sciences (NCATS), 2014)
# Out of some 1,300 compounds screened, about 25 (2%) were called active. Another 9% or so got no clear call; they are omitted. Calls follow the shape of the dose curve; as a rule, active = well fitted activation curve with a large enough effect; inconclusive = small, poorly fitted or top-dose-only effect; inactive = flat fitted curve, though single readings scatter. The list shows a part of the results.
# Target: Glucagon-like peptide 1 receptor (Homo sapiens) (UniProt P43220)
# Test: qHTS of GLP-1 Receptor Agonists: Hit Validation; as to activation: % of control where 0% means no effect
# Conditions: HEK293 GLP-1R, cAMP-response luciferase, 4-6 h; series mostly up to 46.1 µM; activation: at the top concentration
# Text: The overall goal of this project was to develop a novel assay for discovering small molecule ligands for class B1 G protein-coupled receptors (GPCRs). Very few agonists (or inverse agonists) with generally weak activity for this entire group of physiologically important receptors are known to date. To establish proof-of-principle that this critical bottleneck can be overcome with a suitable screening approach, our studies focused on the class B1 receptor for glucagon-like peptide-1 (GLP-1R), a potential therapeutic target for diabetes and neurodegenerative disease. The assay was developed in a "mix and measure" format using a cell-based functional readout. Toward this goal, stably transfected HEK293 cell clones were established that co-express (i) a cAMP-responsive luciferase reporter gene, and (ii) GLP-1Rs that upon ligand interaction either stimulate (agonists) or inhibit (inverse agonists) luciferase activity. In different cell lines to be used for screening, expressed GLP-1Rs are specifically optimized for high sensitivity detection of either weak agonists (hypersensitive receptor) or inverse agonists (constitutively active receptor mutant). In addition, control cell lines were developed that express either the cAMP-responsive reporter gene without recombinant GLP-1Rs (enabling initial exclusion of GLP-1R independent effects of candidate probes), or the reporter gene together with wild type GLP-1Rs (for confirmation of probe activity at this receptor), or the reporter gene in combination with the constitutively active orphan receptor GPR119 (enabling initial exclusion of GLP-1R independent inhibitory effects of candidate inverse agonists). To that end, this assay was optimized for 1536-well format and screened against the MLSMR. NIH Molecular Libraries Probe Production Network [MLPCN] NIH Chemical Genomics Center [NCGC] Grant: NS064851 PI Name: Martin Beinborn, Tufts Medical Center
# In a white solid 1536-well plate, 6 uL of cells are dispensed in DMEM without phenol red, 10% Nu serum, and 1% pen-strep medium. The plates are then incubated for 12 hours at 37 deg C at 5% CO2 before 23 nL of compounds are added. After a 4-6 hr incubation at37 deg C and 5% CO2, 3 uL of detection reagent are added and after a 12 min incubation at RT, a luminescent read is obtained on the ViewLux.
# Potency is read from the fitted curve at half-maximal effect.
# UniProt P43220, sequence (P43220 whole entry, looked up): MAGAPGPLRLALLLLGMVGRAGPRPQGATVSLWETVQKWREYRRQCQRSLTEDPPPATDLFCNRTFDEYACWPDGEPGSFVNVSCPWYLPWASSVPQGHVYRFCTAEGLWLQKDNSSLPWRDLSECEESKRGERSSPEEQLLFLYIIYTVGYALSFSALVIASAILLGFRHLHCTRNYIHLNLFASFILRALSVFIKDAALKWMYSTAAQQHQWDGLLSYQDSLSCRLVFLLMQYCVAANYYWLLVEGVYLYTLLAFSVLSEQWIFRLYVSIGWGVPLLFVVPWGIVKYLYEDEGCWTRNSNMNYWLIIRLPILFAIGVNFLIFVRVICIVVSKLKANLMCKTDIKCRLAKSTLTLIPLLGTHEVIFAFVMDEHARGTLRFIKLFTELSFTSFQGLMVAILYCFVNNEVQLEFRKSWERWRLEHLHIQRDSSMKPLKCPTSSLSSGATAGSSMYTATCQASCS
SMILES,activation,Potency
CCOC(=O)c1sc(NC(=O)C2=COCCO2)c(C#N)c1C,inactive: 1.43%,
COc1cc(C#Cc2ccc3cc(CCO)oc(=O)c3c2)cc(OC)c1,inactive: 29.7%,
COc1cccc(/C=N/n2cnc3cc(C)c(C)cc32)c1OC,inactive: 10%,
CCOc1ccc(C(C)NC(=O)c2ccccc2OCc2c(C)noc2C)cc1OCC (centres undefined),inactive: -0.281%,
COc1ccc(-c2nc(C(N)=O)c3[nH]c(=O)n(-c4cccc(C)c4)c3n2)c(OC)c1,inactive: 17.2%,
COCCN1C=C(C(=O)OC)C(c2cc(Br)c(OC)c(OC)c2)C(C(=O)OC)=C1,inactive: -0.42%,
COc1ccc(-c2csc(C3=C(O)CN(C(C)C)C3=N)n2)cc1OC,inactive: 24.3%,
CCOc1ncccc1C(=O)OCCN1C(=O)c2ccccc2C1=O,inactive: 0.839%,
CCn1c(=O)[nH]c(=O)c2c(N)c(C(=O)c3ccccc3OC)sc21,inactive: 19.8%,
COc1ccc(-c2cnc3c(NC=O)cc(-c4ccc(C(=O)N5CCOCC5)cc4)cn23)cc1OC,inactive: 22.4%,
CCOc1ccc2ccccc2c1/C=N/NC(=O)c1cc(C)[nH]n1,inactive: 0.23%,
CC1CCc2sc3ncnc(N4CCN(CCO)CC4)c3c2C1 (centres undefined),inactive: 4.17%,
N#CCSc1nc(N)c(C#N)c(C2CCCCC2)c1C#N,inactive: 27.1%,
COc1ccc(-c2nc(N)ncc2-c2ccc(OC)c(OC)c2)c(O)c1,inactive: 13.8%,
Cc1ccnc(SCc2cc(=O)c(OC(=O)c3cccs3)co2)n1,inactive: -1.16%,
CCOC(=O)n1c(=O)n(Cc2ccccc2Cl)c2ccccc21,inactive: 3.3%,
COC(=O)c1cc(OC)c(OC)cc1NC(=O)Cc1ccccc1[N+](=O)[O-],inactive: 2.64%,
COc1ccc(-c2nnc(CSc3nc4ccccc4c(=O)n3CC(C)C)o2)cc1OC,inactive: 25.3%,
COc1cc(-c2cc(-c3ccc(O)cc3)nc(N)c2C#N)ccc1O,inactive: 10.9%,
c1ccc(C2COC(c3cccs3)=N2)cc1 (centres undefined),inactive: 2.36%,
COc1ccc(-c2cc(C(=O)N(C)Cc3cccc(OC)c3OC)c3ccccc3n2)cc1OC,inactive: 21.9%,
CCOC(=O)c1c(C)[nH]c(C(=O)N/N=C/c2ccc(Br)cc2)c1C,inactive: 15.3%,
CN(c1ccccc1)c1nc(N)c([N+](=O)[O-])c(Nc2ccccc2F)n1,inactive: 25.7%,
CCS(=O)(=O)NCCc1cc2ccc(C)cc2[nH]c1=O,inactive: -0.645%,
CCOC(=O)c1c(C)n(C)c2cc(Br)c(C(=O)OC)cc12,inactive: 19.6%,
C=CCn1c(SCc2cc(C(C)=O)ccc2OCC)nc2ccccc2c1=O,inactive: 16.2%,
O=[N+]([O-])c1ccccc1OCCCOc1cccc2cccnc12,inactive: 14.7%,

SMILES,activation,Potency
CC(C)OC(=O)CSc1nc(N)c(C#N)cc1C#N,inactive: 6.86%,
Cc1cc(C)c(NS(=O)(=O)c2ccc(NC(=O)CCC(=O)O)cc2)c(C)c1,inactive: -0.308%,
CC(OC(=O)c1ccc2ncsc2c1)C(=O)NC1CCCCC1C (centres undefined),inactive: 2.27%,
COc1ccc(C2CC(c3ccc4ccccc4c3OC(C)=O)=NN2C(C)=O)cc1 (centres undefined),inactive: 7.64%,
Cc1cc(N(C)C)ccc1N=Nc1ccc(N)cc1,inactive: 5.08%,
CCOc1ccc(C(=O)OCC(=O)Nc2cccnc2Cl)cc1OCC,inactive: 2.67%,
COc1cc2c(cc1[N+](=O)[O-])n(C(C)C)c(=O)n2C(C)C,inactive: 12.1%,
COc1ccc(-n2cnc3cc(NS(=O)(=O)c4ccccc4)ccc32)cc1,inactive: 13.6%,
N#CCSc1nc2ccccc2c(=O)n1CC1CCCC1,inactive: 4.81%,
Cc1ccc(C)c(C(=O)c2ccccc2NC(=O)c2ccccn2)c1,inactive: 6.44%,
COc1cc2ccnc(Cc3cccc(OC)c3OC)c2cc1OC,inactive: 21.2%,
COc1ccc(C(=O)NC2CC(C)(C)Cc3c2cnn3-c2ccccc2C)c(OC)c1OC (centres undefined),inactive: 1.2%,
COc1ccc(C(=O)c2cc([N+](=O)[O-])ccc2N2CCOCC2)cc1,inactive: 9.91%,
c1ccc(-c2nn3nnnc3c3ccccc23)cc1,inactive: 3.31%,
C=CCOc1ccc(Cl)cc1-c1noc(-c2csc([C@H]3C[C@H](O)[C@@H](CO)O3)n2)n1,inactive: 8.57%,
C/C(=N\NC(=O)CC(C)C)c1ccc(Cl)c(Cl)c1,inactive: 6.12%,
COC(=O)C1=CN(Cc2ccc(OC)cc2)C=C(C(=O)OC)C1c1cc(OC)c(OC)c(OC)c1,inactive: 0.276%,
CN=C1S/C(=C\c2ccc(O)c(OC)c2)C(=O)N1C,inactive: 11%,
COc1ccc(-c2cnc3c(NC(C)=O)cc(-c4cccc(C(=O)NCCN(C)C)c4)cn23)cc1OC,inactive: 18.3%,
Cc1ccc(S(=O)(=O)N/N=C/c2ccc(O)cc2O)cc1[N+](=O)[O-],inactive: -0.854%,
COc1ccccc1C(=O)OCc1nc(N)nc(Nc2ccccc2C)n1,inactive: 7.28%,
CC1Cc2cc(S(=O)(=O)N3CCCC(C(=O)N4CCCCC4)C3)ccc2N1C(=O)C1CC1 (centres undefined),inactive: 10.9%,
COC(=O)C(C)Sc1nc2c(c(=O)[nH]c(=O)n2C)n1CCCc1ccccc1 (centres undefined),inactive: 13.2%,
COc1ccc(-c2cc(NC=O)c3ncc(-c4ccc(OC)c(OC)c4)n3c2)cc1,,active: 18.4 µM
CSc1ncccc1C(=O)OCc1ccccc1Cl,inactive: 3.59%,
CCN(CC)CC(=O)Nc1scc2c1c(=O)oc1ccccc12,,active: 8.2 µM
COc1ccc(/C(N)=N/OC(=O)c2c(-c3ccccc3Cl)noc2C)cc1OC,inactive: 14.6%,
